Test results published in PubChem BioAssay AID2451 (National Center for Advancing Translational Sciences (NCATS), 2010).
The whole screen tested about 290,000 compounds, of which about 2,100 (0.72%) were called active. The inconclusive results got no clear call from the source; some entries with a clear call stand among them for comparison. The call rests on the fitted dose curve; in most records, active means well fitted inhibition curve with a large enough effect; inconclusive means small, poorly fitted or top-dose-only effect, or effect the other way; inactive means flat fitted curve, though single readings scatter. Where the call is inconclusive, the potency comes from a doubtful curve fit.

Biological target: Fructose-bisphosphate aldolase (Giardia intestinalis (strain ATCC 50803 / WB clone C6)) (UniProt A8B2U2)
Test: qHTS Assay for Inhibitors of Fructose-1,6-bisphosphate Aldolase from Giardia Lamblia; further: nearly all actives have a fitted effect of over 55% in size
Details: purified Giardia FBPA; series mostly up to 59.6 µM
Procedure, shortened: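 Giardia FBPA (40 nM reagent) was preincubated 10 min at RT with compound (up to 57.5 uM final), then substrate plus GAPDH/TPI/NAD/arsenate coupling system with diaphorase/resazurin was added; resorufin fluorescence (525/598 nm) was read after 20 min.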
Potency means the concentration at half of the fitted maximal effect; tags describe the fitted curve by direction and shape.

Chain of UniProt A8B2U2 (A8B2U2 whole entry, looked up): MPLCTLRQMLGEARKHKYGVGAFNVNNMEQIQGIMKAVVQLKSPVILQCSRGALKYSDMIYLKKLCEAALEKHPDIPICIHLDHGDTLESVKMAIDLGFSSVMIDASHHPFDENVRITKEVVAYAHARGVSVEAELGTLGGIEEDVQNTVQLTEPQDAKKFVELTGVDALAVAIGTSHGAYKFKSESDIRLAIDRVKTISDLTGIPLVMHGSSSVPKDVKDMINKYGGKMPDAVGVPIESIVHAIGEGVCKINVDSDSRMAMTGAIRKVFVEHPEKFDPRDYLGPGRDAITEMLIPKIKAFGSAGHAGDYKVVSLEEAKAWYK

| Structure (SMILES) | Potency |
| --- | --- |
| CCOc1[nH]n(-c2ccccc2)c(=O)c1C=NCC(=O)OC | inactive |
| O=C(/C=C/c1ccc(-c2ccccc2[N+](=O)[O-])o1)c1ccccc1 | inconclusive: 1.26 µM [inhibitor, full curve] |
| CCS(=O)(=O)N1Cc2ccccc2CC1C(=O)N(C)Cc1ccc(OC)c(F)c1 (configuration not stated) | inactive |
| COc1ccc(CC(=O)NCC(=O)N/N=C/c2cc(Br)ccc2OC)cc1 | inconclusive: 17.7 µM [inhibitor, single point] |
| C/C(CC(=O)Nc1cccc(Cl)c1Cl)=N\NC(=O)c1ccccc1N | inactive |
| CCOc1ccc(/C(C)=N/N2C(=O)C(CC(=O)Nc3ccc(OC)cc3[N+](=O)[O-])SC2=Nc2cccc(C)c2C)cc1 (configuration not stated) | inactive |
| CC(C)C[C@H]1C(=O)N2CCCC2[C@]2(O)O[C@](NC(=O)[C@@H]3C=C4c5cccc6[nH]cc(c56)CC4N(C)C3)(C(C)C)C(=O)N12 (some centres not stated) | inconclusive: 2.23 µM [inhibitor, full curve] |
| C=CCn1c(Cc2ccccc2)nc2c(cnn2-c2ccccc2)c1=O | inactive |
| O=C(NCc1ccc(/C=c2\sc3n(c2=O)CCN=3)o1)C(=O)Nc1ccccc1 | inconclusive: 15.8 µM [inhibitor, single point] |
| CCOC(=O)C1=C(CS(=O)(=O)c2ccc(F)cc2)NC(=O)NC1c1ccc(O)c(O)c1 (configuration not stated) | inconclusive: 39.8 µM [inhibitor, single point] |
| C=CC1=C(C)/C(=C/c2[nH]c(Cc3[nH]c(/C=C4\NC(=O)C(C)=C4C=C)c(C)c3CCC(=O)O)c(CCC(=O)O)c2C)NC1=O | inconclusive: 14.1 µM [inhibitor, partial curve] |
| CCOC(=O)N1CCc2c(sc(NC(=O)CN3CCOCC3)c2C#N)C1 | inconclusive: 35.4 µM [inhibitor, single point] |
| COc1ccc(C(=O)NC(NC(=O)c2ccc(OC)cc2)c2ccccc2F)cc1 | inactive |
| Oc1ccc(C=Nc2cccc3ccccc23)c(O)c1 | inconclusive: 15.8 µM [inhibitor, partial curve] |
| O=C1C2CC=C(Cl)CC2C(=O)N1CC1Cc2ccccc2CO1 (configuration not stated) | inconclusive: 19.9 µM [inhibitor, single point] |
| CCC(=O)O[C@H]1C(O[C@@H]2C(C)[C@H](O[C@H]3C[C@@](C)(OC)C(O)C(C)O3)C(C)C(=O)OC(CC)[C@@](C)(O)C(O)[C@H](C)C(=O)C(C)C[C@]2(C)O)OC(C)CC1N(C)C (some centres not stated) | inconclusive: 19.9 µM [activator, partial curve] |
| Fc1ccc(CSc2ncnc3nc[nH]c23)cc1 | inconclusive: 17.7 µM [inhibitor, partial curve] |
| CC(C)c1cccc(C(C)C)c1NC(=O)CNCC(O)c1ccccc1 (configuration not stated) | inconclusive: 14.1 µM [inhibitor, partial curve] |
| CCC(=O)N1CCc2cc(Br)cc(S(=O)(=O)NCCN3CCCCC3C)c21 (configuration not stated) | inactive |
| Cc1c(C(=O)N/N=C/c2ccc(-c3ccccc3[N+](=O)[O-])o2)sc(N)c1C#N | inconclusive: 5 µM [inhibitor, partial curve] |
| CCc1ccc(OCCn2ccnc2)cc1 | active: 25.1 µM |
| O=C(O)C[C@@H]1C(=O)O[C@@H]2C(COC(=O)c3cc(O)c(O)c(O)c3)O[C@@H](OC(=O)c3cc(O)c(O)c(O)c3)[C@@H](OC(=O)c3cc(O)c(O)c4c3[C@H]1[C@H](O)C(=O)O4)[C@H]2OC(=O)c1cc(O)c(O)c(O)c1 (some centres not stated) | active: 3.97 µM |
| CC(C)(C)c1cc(-n2ccnc2)n2ncc(-c3ccc(Cl)cc3)c2n1 | inactive |
| CCN(CC)c1ccc(/C=C/c2cc(-c3ccccc3)c3ccccc3n2)cc1 | inactive |

| Structure (SMILES) | Potency |
| --- | --- |
| NCCCCCc1cnc[nH]1 | inconclusive: 25.1 µM [inhibitor, single point] |
| O=c1[nH]sc2cc(F)ccc12 | inconclusive: 44.6 µM [inhibitor, single point] |
| O=C1CC(c2ccccc2Cl)=NN(c2ncnc3ccccc23)C1=O | inconclusive: 17.7 µM [inhibitor, partial curve] |
| CC(=O)c1cccc(OCC(O)CNCCOc2ccc(C)cc2)c1 (configuration not stated) | inconclusive: 15.8 µM [inhibitor, partial curve] |
| COc1ccc(N2C(=O)/C(=C/C=C/c3ccccc3[N+](=O)[O-])C(=O)NC2=S)cc1 | inconclusive: 17.7 µM [inhibitor, single point] |
| Cc1ccc(NC(=O)/C(=C\c2cccnc2)NC(=O)c2ccccc2)cc1 | inactive |
| COc1cccc(NC(=O)CSc2nc3ncc(Br)cc3[nH]2)c1 | inconclusive: 14.1 µM [inhibitor, partial curve] |
| COCCCn1c(N)c(C(=O)NCCC(C)C)c2nc3ccccc3nc21 | inconclusive: 7.06 µM [inhibitor, partial curve] |
| Cc1nn2cc(-c3cccc(Cl)c3)cnc2c1Br | inactive |
| O=C(c1cc2c(s1)CCC2)N1C(=O)c2ccccc2S1(=O)=O | inconclusive: 17.7 µM [activator, single point] |
| NC(=O)C(=CNc1nc(-c2ccc(Cl)c(Cl)c2)cs1)C(N)=O | active: 17.7 µM |
| CCOc1cc(CNCCc2cccc(F)c2)ccc1OC | inconclusive: 11.2 µM [inhibitor, partial curve] |
| COc1ccc(-c2nc(N)ncc2-c2ccccc2OC)c(O)c1 | inactive |
| Cc1cc2ncn(/N=C/c3ccc4c(c3)OCO4)c2cc1C | inactive |
| CCOc1ccc(C(=O)N/N=C/c2cccc3cccnc23)cc1 | inactive |
| COc1cccc(/C=N/NC(=O)c2cnn(-c3ccccc3)c2N)c1 | inactive |
| C=CCn1c(NS(=O)(=O)c2ccccc2)c(S(=O)(=O)c2ccc(C)cc2)c2nc3ccccc3nc21 | active: 0.141 µM |
| O=C(O)COc1ccc(C(=O)c2cccs2)c(Cl)c1Cl | inconclusive: 19.9 µM [activator, partial curve] |
| COc1cccc(O)c1O | active: 17.7 µM |
| COc1ccccc1CNc1nc(-c2ccc(N(C)C)cc2)nc2ccccc12 | inconclusive: 11.2 µM [inhibitor, partial curve] |
| Cc1cccc(N/C=C(\[N+](=O)[O-])S(=O)(=O)c2ccccc2)c1C | inactive |
| Brc1cccc(OCCN2CCOCC2)c1 | inconclusive: 22.4 µM [inhibitor, single point] |
| COc1ccc(C(=O)NC(=S)Nc2nc(C)c(C(=O)N(C)C)s2)cc1 | inconclusive: 9.98 µM [inhibitor, partial curve, poor fit] |
| O=C(NC(=S)NNC(=O)c1ccccc1O)c1ccco1 | inconclusive: 31.5 µM [activator, single point] |

| Structure (SMILES) | Potency |
| --- | --- |
| COc1ccc(NC(=S)N(CCC(C)C)C2CCN(C(C)C)CC2)cc1Cl | inconclusive: 39.8 µM [inhibitor, single point] |
| O=C(CSc1n[nH]c(-c2ccncc2)n1)Nc1ccccn1 | inconclusive: 20 µM [inhibitor, partial curve] |
| CCOC(=O)c1ccc(NC(=O)CCc2nc(-c3ccccc3Cl)no2)cc1 | inactive |
| O=C(NCCN1CCCC1)c1ccc(Cn2c(=S)[nH]c3ccc(Br)cc3c2=O)cc1 | inactive |
| N=C1/C(=C/c2ccco2)C(=O)N=C2SC(CC(=O)N3CCCC3)=NN12 | inconclusive: 28.2 µM [inhibitor, single point] |
| Cc1cccc(Nc2nc(N)c(C#N)c(CC#N)c2C#N)c1 | inconclusive: 5 µM [inhibitor, full curve, poor fit] |
| COc1ccc2c(c1)C1=NN(/C(C)=C\C(C)=O)C(c3ccccc3)C1CC2 (configuration not stated) | inconclusive: 15.8 µM [inhibitor, partial curve] |
| CC1CCN(c2nc3ccc(C(=O)N4CCN(Cc5ccccc5)CC4)cc3s2)CC1 | inactive |
| C/C(=N\NC(=O)C(c1ccccc1)c1ccccc1)c1ccccn1 | inactive |
| CC1(C)CC(=O)C=C(Nc2ccccc2C#N)C1 | inconclusive: 39.8 µM [inhibitor, single point] |
| CCOc1cccc(=O)c2c(C)n(-c3ccc(C(=O)O)cc3)c(C)c12 | inconclusive: 17.7 µM [inhibitor, partial curve] |
| COc1ccc(N2C(N)=C(C#N)C(c3ccsc3)C3=C2CCCC3=O)c(OC)c1 (configuration not stated) | inconclusive: 12.6 µM [inhibitor, partial curve] |
| COc1ccc(C(=O)ON=C2C=C(C)C(=O)C(C)=C2)cc1 | inconclusive: 0.794 µM [inhibitor, full curve] |
| O=C1C=C(NCc2ccco2)CC(c2ccc(Cl)cc2)C1 (configuration not stated) | inactive |
| O=C(CSc1ccsc1[N+](=O)[O-])N1CCN(c2ccccn2)CC1 | inactive |
| O=C1CCC2c3ccc4ccccc4c3CCN12 (configuration not stated) | inconclusive: 15.8 µM [inhibitor, partial curve] |
| O=C(NCc1ccco1)c1cc(=O)c2ccccc2o1 | inactive |
| CCOC(=O)c1ccc(NC(=O)c2nc[nH]c2C(=O)NC)cc1 | inactive |
| CC(NC(=O)c1ccco1)c1nc(-c2ccc(C(C)(C)C)cc2)no1 (configuration not stated) | inactive |
| Cc1[nH]c2ccccc2c1C(c1ccccn1)N1CCC(C(N)=O)CC1 (configuration not stated) | inactive |
| O=Cc1c(N2CCSCC2)nc2ccccn2c1=O | inactive |
| COC(=O)CCCC1=CC2=CC(=O)C(C)(OC(=O)c3cccs3)C(=O)C2=CN1C(CO)CO (configuration not stated) | inconclusive: 0.561 µM [inhibitor, full curve] |
| COC(=O)[C@H]1[C@H]2C[C@H]3c4[nH]c5ccccc5c4CCN3C[C@H]2CC[C@@H]1O | inconclusive: 14.1 µM [inhibitor, partial curve] |
| Cc1ccc(-n2c(C)n[nH]c2=S)cc1 | inconclusive: 15.8 µM [inhibitor, single point] |
